Reference: the RNAGym collection of RNA variant scans (doi:10.1093/nar/gkz1192)
Read counts are not given, so values of variants with three or more changes are uncertain.

B1: CPEB3 Ribozyme (parent)
chain: UAACAGGGGGCCACAGCAGAAGCGUUCACGUCGCAGCCCCUGUCAGAUUCUGGUGAAUCUGCGAAUUCUGCUGUAUAUCUC

Variants of: B1
Assay: self-cleavage, relative activity (ratio to wild type); higher = more cleavage; in vitro, sequencing
In short: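 Relative activity was defined as the cleaved/total read fraction for a variant divided by the same fraction for the unmutated ribozyme. CPEB3 self-cleaving ribozyme libraries were made by rounds of error-prone PCR, barcoded, and transcribed in vitro with T7 RNA polymerase for 5 hours at 37°C, and cleavage ran through transcription plus a 15 min DNase I step before EDTA. Illumina sequencing of template-switched reverse transcripts gave the reads, and DNA sequencing mapped the barcodes. Averages come from three batches, using variants with at least 5 reads.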
With UAACAGGGGGCCACAGCAGAAGCGCUCCCGUCGCAGCCCCUGUCAGAUUCUGGUGAAUCCGCGAAUUCUACUGUAUAUCUC [U25C A28C U60C G70A] the self-cleavage was 0.14.
With UAACAGGGGGCCACAGCAGAAGCGCUCGCGUCGCAGCCCCUGCCAGAUUCUGGUGAAUCUGCGAAUUCUGCUGUAUAUCUC [U25C A28G U43C] the self-cleavage was 0.4.
Variant UAACAGGGGGCCACAGCAGAAGCGCUCGCGUCGCAGCCCCUGUCAGAUUCUGGUGGGUCUGCGAAUCCUGCUGUAUAUCUC [U25C A28G A56G A57G U67C] has a self-cleavage of 0.12.
UAACAGGGGGCCACAGCAGAAGCGAUCACGUCGCAGCCCCUGUCAGAUUCUGGUGAAUCCGCGGAUUCUGCUGUAUAUCUC [U25A U60C A64G] gave a self-cleavage of 0.15.
With UAACAGGGGGCCACAGCAGAAGCGCUCGCGUCGCAGCCCCUGUCAGAUUCCGGUGAAUCUGCGAAUUCUGCUGUAUAUCUC [U25C A28G U51C] the self-cleavage was 0.07.
Variant UAACAGGGGGCCACAGCAGAAGCGCUCGCGUCGCAGCCCCUGUCAGAUUCUGGUGAAUAUGCGAAUUCUGCUGUAUAUCUC [U25C A28G C59A] has a self-cleavage of 0.1.
UAACAGGGGGCCACAGCAGAAGCGCUCGCGUCGCAGCCCCUGUCAGAUUCUGGUAAAUCUGCGGAUUCUGCUGUAUAUCUC [U25C A28G G55A A64G] showed a self-cleavage of 0.2.
UAACAGGGGGCCACAGCAGAAGCGCUCGCGUCGCAGCCCCUGUCAGAUUCUGGUGAAUCUGCGAAUUCUGCUGUAUAUCCC [U25C A28G U80C] gave a self-cleavage of 0.36.
Variant UAACAGGGGGCCACAGCAGAAGCGCUCGCGUCGCAGCCCCUGUCAGAUUCUGUUGAAUCUGCGAAUUCUGCUGUAUAUCUC [U25C A28G G53U] has a self-cleavage of 0.18.
With UAACAGGGGGCCACAGCAGAAGCGCUCGCGUCGCAGCCCCUGUCAGAUUCUGGUGAAACUGCGAAUUCUGCUGUAUGUCUC [U25C A28G U58A A77G] the self-cleavage was 0.16.
With UAACAGGGGGCCACAGCAGAAGCGAUCACGUCGCAGCCCCUGUCAGAUUCUGGUGAAUCGGCGAGUCCUGCUGUAUAUCUC [U25A U60G A65G U67C] the self-cleavage was 0.12.
UAACAGGGGGCCACAGCAGAAGCGAUCACGUCGCAGCCCCUGUCAGAUUCUGGUGAAUCCGCGAAUUCUGCAGUGUAUCUC [U25A U60C U72A A75G] showed a self-cleavage of 0.13.
With UAACAGGGGGCCACAGCAGAAGCGCUCGCGUCACAGCCCCUGUCUGAUUCUGGUGAAUCUGCGAAUUCUGCUGUAUAUCUA [U25C A28G G33A A45U C81A] the self-cleavage was 0.11.
UAACAGGGGGCCACAGCAGAAGCGAUCACGUCGCAGCCCCUGUCAGAUUCUGGUGAAUCUGCGAAUUCUGCAGUGUAUCUC [U25A U72A A75G] showed a self-cleavage of 0.06.
In the case of UAACAGGGGGCCACAGCAGAAGCGCUCGCGUCGCAGCCCCAGUCAGAUUCUGGUGAAUCUGCGAACUCUGCUGUAUAUCUC [U25C A28G U41A U66C], the self-cleavage is reported as 0.07.
With UAACAGGGGGCCACAGCAGAAGCGAUCACGUCGCAGCCCCUGUCAGAUUCUGGUGAAUCUGCGAAUUCUGCUGGGUAUCUC [U25A U74G A75G] the self-cleavage was 0.13.
With UAACAGGGGGCCACAGCAGAAGCGCUCUCGUCGCAGCCCCUGUCCGAUCCUGGUGAAUCUGCGAGUUCUGCUGCAUAUCUC [U25C A28U A45C U49C A65G U74C] the self-cleavage was 0.
For UAACAGGGGGCCACAGCAGAAGCGCUCCCGUCGCAGCCCCUGUCAGAUUCUGGUGAAUCUGCGAAUUCCGCUGUAUAUCUC [U25C A28C U69C], the self-cleavage was 0.32.
UAACAGGGGGCCACAGCAGAAGCGAUCACGUCGCAGCCCCUGUCAGAUUCUGGCGAAUCUGCGUAUUCUGCUGUAUAUCUC [U25A U54C A64U] showed a self-cleavage of 0.2.
In the case of UAACAGGGGGCCACAGCAGAAGCGCUCGCGUCGCGGCCCCAGUCAGAUCCUGGUGAAUCUGCGAAUUCCGCUGUAUAUCUC [U25C A28G A35G U41A U49C U69C], the self-cleavage is reported as 0.02.
For UAACAGGGGGCCACAGCAGAAGCGCUCGCGUCGCAGCCCCUGUCAGGUACUGGUGAAUCUGCGAAUUCUGCAGUAUUUCCC [U25C A28G A47G U49A U72A A77U U80C], the self-cleavage was 0.05.
UAACAGGGGGCCACAGCAGAAGCGAUCACGUCGCAGCCCCUGUCAGAUUCUGGCGAGUCAGCGAAUUCUGCUGUAUAUCUC [U25A U54C A57G U60A] showed a self-cleavage of 0.14.
UAACAGGGGGCCACAGCAGAAGCGCUCGCGUCGCAGCCCCUGUCAGAUUCUGGUGAAUCUGCGAAUUCUGCUGUAUAACUC [U25C A28G U78A] gave a self-cleavage of 0.23.
UAACAGGGGGCCACAGCAGAAGCGCUCGCGUCGCAGCCCCUGUCAGAUUCUGGAGAAUCUGCCAAUUCUGCUGUAUAUCAC [U25C A28G U54A G63C U80A] gave a self-cleavage of 0.
In the case of UAACAGGGGGCCACAGCAGAAGCGAUCACGUCGCAGCCCCUGUCAGAUUCUGGUGAAUCUGCGAAUUCUGCUGCAUAUCCC [U25A U74C U80C], the self-cleavage is reported as 0.52.
Variant UAACAGGGGGCCACAGCAGAAGCGAUCACGUCGCAGCCCCUGUCAGAUUCUGGUGAAUCUGCGAAUUCCGCUGCAUAUGUC [U25A U69C U74C C79G] has a self-cleavage of 0.06.
With UAACAGGGGGCCACAGCAGAAGCGCUCGCGUCGCAGCCCCUGUCAGAUUCUCGUGAAUCUGCGAAUUCUGCUGUAUACCUC [U25C A28G G52C U78C] the self-cleavage was 0.05.
For UAACAGGGGGCCACAGCAGAAGCGCUCGCCCCGCAGCCCCUGUCAGGUUCUGGUGAAUCUGCGAAUUCUGCUGUAUAUCUC [U25C A28G G30C U31C A47G], the self-cleavage was 0.17.
UAACAGGGGGCCACAGCAGAAGCGCUCGCGUCGCAGCCUCUGUCAGAUUCCGAUGAAUCUGCGAGUUCUGCUGUAUAUCUC [U25C A28G C39U U51C G53A A65G] gave a self-cleavage of 0.1.
UAACAGGGGGCCACAGCAGAAGCGAUCACGUCGCAGCCCCUGUCAGAUUCUGGUGAACCUGCGAAUACUGCUGUAUGUCUC [U25A U58C U67A A77G] showed a self-cleavage of 0.04.
UAACAGGGGGCCACAGCAGAAGCGCUCGCGACGCAGCCCCUGUCAGAUUCCGGUGAAUCUGUGAAUUCUGCUGUAUAUCUC [U25C A28G U31A U51C C62U] showed a self-cleavage of 0.11.
In the case of UAACAGGGGGCCACAGCAGAAGCGCUCGCGUCGCAGCCCCUGUCUGAUUCUGGUGAACCUGCGAAUUCUGCGGUAUAUCUC [U25C A28G A45U U58C U72G], the self-cleavage is reported as 0.02.
UAACAGGGGGCCACAGCAGAAGCGCUCCCGACGCAGCCCCUGUCAGAUUCUGGUGAAUCUGCGAAUUCUGCUGUAUAUCUC [U25C A28C U31A] showed a self-cleavage of 0.22.
Variant UAACAGGGGGCCACAGCAGAAGCGCUCGCGUCGCAGCCCCAGUCAGAUUCUGGUGAAUCUGUGAAUUCUGCUGUAUAUCUC [U25C A28G U41A C62U] has a self-cleavage of 0.1.
